To fix the notation:
B1: TEV protease; numbered along this chain (parent)
chain: MGESLFKGPRDYNPISSSICHLTNESDGHTTSLYGIGFGPFIITNKHLFRRNNGTLVVQSLHGVFKVKDTTTLQQHLVDGRDMIIIRMPKDFPPFPQKLKFREPQREERICLVTTNFQTKSMSSMVSDTSCTFPSGDGIFWKHWIQTKDGQCGSPLVSTRDGFIVGIHSASNFTNTNNYFTSVPKNFMELLTNQEAQQWVSGWRLNADSVLWGGHKVFMVKPEEPFQPVKEATQL

The test covers variants of B1. Put plainly: raw area under fraction-flipped curve 0-4 h after induction (AUC4h, not background-subtracted), DNA-recorder readout of cleavage of the substrate (dimensionless); higher = more cleavage of the substrate by the protease variant. Particulars: temperature: 34 °C; time window: 0-4 h after rhamnose induction. As for the experimental part: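 In vivo DNA recorder in E. coli TOP10(DE3) ΔrhaA at 34 °C. Each TEVp single-site mutant (parent TEVp 0) is paired with a single-site variant of the 7-mer TEVs (canonical ENLYFQ|S). The substrate sits between flexible linkers in a Bxb1-sfGFP-TEVs-SsrA fusion, so cleavage stabilises Bxb1 and speeds flipping of a recombination array, read by NGS. The value is the raw area under the fraction-flipped curve over 0-4 h after rhamnose induction (AUC4h), with ≥20 reads per time point. It is not background-subtracted; inactive controls average about 0.047.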

Results on nine variants are retold here after the supplement of paper PMC12217912.

The list shows a part of the results. The full chains were built here from the parent and the listed change. Inactive controls read about 0.05.
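Also: Bxb1 expression induced with 0.2% (w/v) L-rhamnose at OD600 near 0.5, cultures sampled hourly, flipped fraction per protease–substrate barcode pair counted by paired-end Illumina sequencing.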

For MGESLFKGPRDYNPISSSICHLTNESDGHTTSLYGIGFGPFIITNKHLFRRNNGTLVVQSLHGVFKVKDTTTLQQHLVDGRDMIIIRMPKDFPPFPQKLKFREPQREERICLVTTNFQTKSMSSMVSDTSCTFPSGDGIFWKHWIQTKDGQCGSPLVSTRDGFIVGIHSASNFTNTNNYFTSVPKNFMELYTNQEAQQWVSGWRLNADSVLWGGHKVFMVKPEEPFQPVKEATQL [L191Y], the “area with substrate ENLYFAS” value amounted to 0.0541, the “area with substrate ENLYFES” value amounted to 0.0605, the “area with substrate ENLYFFS” value is 0.046 and the “area with substrate ENLYFGS” value came to 0.0624. Moreover, the “area with substrate ENLYFHS” value is 0.0464, the “area with substrate ENLYFIS” value came out at 0.0515, the “area with substrate ENLYFMS” value amounted to 0.0567 and the “area with substrate ENLYFPS” value is 0.0612. Also, the “area with substrate ENLYFTS” value is 0.0501, the “area with substrate ENLYFVS” value is 0.0441, the “area with substrate ENLYFWS” value turned out to be 0.079 and the “area with substrate ENLYFYS” value was found to be 0.027.

Turning to MGESLFKGPRDYNPISSSICHLTNESDGHTTSLYGIGFGPFIITNKHLFRRNNGTLVVQSLHGVFKVKDTTTLQQHLVDGRDMIIIRMPKDFPPFPQKLKFREPQREERICLVTTNFQTKSMSSMVSDTSCTFPSGDGIFWKHWIQTKDGQCGSPLVSTRDGFIVGIHSASNFTNTNNYFTSVPKNFMELATNQEAQQWVSGWRLNADSVLWGGHKVFMVKPEEPFQPVKEATQL [L191A], the “area with substrate ENLYFAS” value stood at 0.0406, the “area with substrate ENLYFCS” value was determined as 0.0497, the “area with substrate ENLYFES” value came out at 0.0525 and the “area with substrate ENLYFFS” value was found to be 0.067. For the same variant, the “area with substrate ENLYFIS” value was determined as 0.0579, the “area with substrate ENLYFKS” value was 0.0343, the “area with substrate ENLYFMS” value was 0.0565 and the “area with substrate ENLYFPS” value came out at 0.0376. In addition, the “area with substrate ENLYFRS” value is 0.0539 and the “area with substrate ENLYFTS” value was determined as 0.0625.

Take MGESLFKGPRDYNPISSSICHLTNESDGHTTSLYGIGFGPFIITNKHLFRRNNGTLVVQSLHGVFKVKDTTTLQQHLVDGRDMIIIRMPKDFPPFPQKLKFREPQREERICLVTTNFQTKSMSSMVSDTSCTFPSGDGIFWKHWIQTKDGQCGSPLVSTRDGFIVGIHSASNFTNTNNYFTSVPKNFMELKTNQEAQQWVSGWRLNADSVLWGGHKVFMVKPEEPFQPVKEATQL [L191K]: the “area with substrate ENLYFAS” value stood at 0.055, the “area with substrate ENLYFCS” value was found to be 0.0488, the “area with substrate ENLYFDS” value came to 0.0482 and the “area with substrate ENLYFES” value turned out to be 0.044. Moreover, the “area with substrate ENLYFFS” value was 0.0639, the “area with substrate ENLYFGS” value was 0.0634, the “area with substrate ENLYFHS” value came to 0.0601 and the “area with substrate ENLYFIS” value was 0.0545. The “area with substrate ENLYFKS” value was 0.0637, the “area with substrate ENLYFLS” value came to 0.0586, the “area with substrate ENLYFMS” value was 0.0647 and the “area with substrate ENLYFNS” value was 0.039. Besides, the “area with substrate ENLYFPS” value was found to be 0.0448, the “area with substrate ENLYFRS” value is 0.0541, the “area with substrate ENLYFTS” value amounted to 0.0542 and the “area with substrate ENLYFWS” value worked out at 0.0482. Further, the “area with substrate ENLYFYS” value was 0.0461.

With MGESLFKGPRDYNPISSSICHLTNESDGHTTSLYGIGFGPFIITNKHLFRRNNGTLVVQSLHGVFKVKDTTTLQQHLVDGRDMIIIRMPKDFPPFPQKLKFREPQREERICLVTTNFQTKSMSSMVSDTSCTFPSGDGIFWKHWIQTKDGQCGSPLVSTRDGFIVGIHSASNFTNTNNYFTSVPKNFMELFTNQEAQQWVSGWRLNADSVLWGGHKVFMVKPEEPFQPVKEATQL [L191F], the “area with substrate ENLYFAS” value was 0.0594, the “area with substrate ENLYFCS” value came out at 0.0589, the “area with substrate ENLYFDS” value was 0.0598 and the “area with substrate ENLYFES” value amounted to 0.0701. For the same variant, the “area with substrate ENLYFFS” value is 0.0657, the “area with substrate ENLYFIS” value amounted to 0.0515, the “area with substrate ENLYFKS” value was found to be 0.0699 and the “area with substrate ENLYFLS” value worked out at 0.0378. Besides, the “area with substrate ENLYFMS” value came out at 0.0684, the “area with substrate ENLYFNS” value was determined as 0.0645, the “area with substrate ENLYFPS” value was determined as 0.0413 and the “area with substrate ENLYFRS” value came to 0.0557. Moreover, the “area with substrate ENLYFSS” value stood at 0.0574, the “area with substrate ENLYFTS” value was found to be 0.0589, the “area with substrate ENLYFVS” value was found to be 0.0869 and the “area with substrate ENLYFWS” value was determined as 0.0409. Moreover, the “area with substrate ENLYFYS” value was determined as 0.0612.

With MGESLFKGPRDYNPISSSICHLTNESDGHTTSLYGIGFGPFIITNKHLFRRNNGTLVVQSLHGVFKVKDTTTLQQHLVDGRDMIIIRMPKDFPPFPQKLKFREPQREERICLVTTNFQTKSMSSMVSDTSCTFPSGDGIFWKHWIQTKDGQCGSPLVSTRDGFIVGIHSASNFTNTNNYFTSVPKNFMELLTNQKAQQWVSGWRLNADSVLWGGHKVFMVKPEEPFQPVKEATQL [E195K], the “area with substrate ENLYFAS” value was 0.0616, the “area with substrate ENLYFCS” value came to 0.055, the “area with substrate ENLYFDS” value was determined as 0.0573 and the “area with substrate ENLYFES” value came to 0.0678. The “area with substrate ENLYFFS” value stood at 0.0671, the “area with substrate ENLYFHS” value came out at 0.0679, the “area with substrate ENLYFIS” value turned out to be 0.065 and the “area with substrate ENLYFKS” value amounted to 0.0538. For the same variant, the “area with substrate ENLYFLS” value was found to be 0.0584, the “area with substrate ENLYFMS” value was determined as 0.0672, the “area with substrate ENLYFNS” value came out at 0.0587 and the “area with substrate ENLYFPS” value turned out to be 0.0656. Besides, the “area with substrate ENLYFRS” value worked out at 0.067, the “area with substrate ENLYFSS” value came out at 0.0477, the “area with substrate ENLYFTS” value was found to be 0.063 and the “area with substrate ENLYFVS” value was determined as 0.0618. Besides, the “area with substrate ENLYFWS” value worked out at 0.067 and the “area with substrate ENLYFYS” value amounted to 0.0559.

In the case of MGESLFKGPRDYNPISSSICHLTNESDGHTTSLYGIGFGPFIITNKHLFRRNNGTLVVQSLHGVFKVKDTTTLQQHLVDGRDMIIIRMPKDFPPFPQKLKFREPQREERICLVTTNFQTKSMSSMVSDTSCTFPSGDGIFWKHWIQTKDGQCGSPLVSTRDGFIVGIHSASNFTNTNNYFTSVPKNFMELLTNQEADQWVSGWRLNADSVLWGGHKVFMVKPEEPFQPVKEATQL [Q197D], the “area with substrate ENLYFAS” value came out at 0.0583, the “area with substrate ENLYFCS” value came to 0.0475, the “area with substrate ENLYFES” value was 0.066 and the “area with substrate ENLYFFS” value turned out to be 0.0723. The “area with substrate ENLYFHS” value came out at 0.0626, the “area with substrate ENLYFIS” value stood at 0.0504, the “area with substrate ENLYFMS” value amounted to 0.0627 and the “area with substrate ENLYFNS” value was 0.0567. Besides, the “area with substrate ENLYFPS” value was determined as 0.0733, the “area with substrate ENLYFRS” value amounted to 0.0505, the “area with substrate ENLYFSS” value is 0.0648 and the “area with substrate ENLYFVS” value was found to be 0.0806. The “area with substrate ENLYFWS” value is 0.0769 and the “area with substrate ENLYFYS” value is 0.0611.

On to MGESLFKGPRDYNPISSSICHLTNESDGHTTSLYGIGFGPFIITNKHLFRRNNGTLVVQSLHGVFKVKDTTTLQQHLVDGRDMIIIRMPKDFPPFPQKLKFREPQREERICLVTTNFQTKSMSSMVSDTSCTFPSGDGIFWKHWIQTKDGQCGSPLVSTRDGFIVGIHSASNFTNTNNYFTSVPKNFMEMLTNQEAQQWVSGWRLNADSVLWGGHKVFMVKPEEPFQPVKEATQL [L190M], for which the “area with substrate ENLYFAS” value was found to be 0.0542, the “area with substrate ENLYFCS” value was 0.06, the “area with substrate ENLYFDS” value was 0.0563 and the “area with substrate ENLYFES” value amounted to 0.11. Besides, the “area with substrate ENLYFFS” value amounted to 0.0665, the “area with substrate ENLYFGS” value was found to be 0.0579, the “area with substrate ENLYFHS” value came out at 0.0499 and the “area with substrate ENLYFIS” value worked out at 0.0544. For the same variant, the “area with substrate ENLYFLS” value stood at 0.0664, the “area with substrate ENLYFMS” value was found to be 0.0556, the “area with substrate ENLYFNS” value is 0.052 and the “area with substrate ENLYFRS” value was 0.0523. The “area with substrate ENLYFSS” value came out at 0.0639, the “area with substrate ENLYFTS” value turned out to be 0.0628 and the “area with substrate ENLYFWS” value was 0.0729.

For the variant MGESLFKGPRDYNPISSSICHLTNESDGHTTSLYGIGFGPFIITNKHLFRRNNGTLVVQSLHGVFKVKDTTTLQQHLVDGRDMIIIRMPKDFPPFPQKLKFREPQREERICLVTTNFQTKSMSSMVSDTSCTFPSGDGIFWKHWIQTKDGQCGSPLVSTRDGFIVGIHSASNFTNTNNYFTSVPKNFMEYLTNQEAQQWVSGWRLNADSVLWGGHKVFMVKPEEPFQPVKEATQL [L190Y], the “area with substrate ENLYFAS” value was determined as 0.0631, the “area with substrate ENLYFCS” value was 0.0762, the “area with substrate ENLYFFS” value came to 0.069 and the “area with substrate ENLYFGS” value worked out at 0.0658. The “area with substrate ENLYFHS” value was found to be 0.0596, the “area with substrate ENLYFIS” value turned out to be 0.0574, the “area with substrate ENLYFLS” value was 0.0457 and the “area with substrate ENLYFMS” value was 0.0552. The “area with substrate ENLYFPS” value came to 0.0651, the “area with substrate ENLYFRS” value came out at 0.0499, the “area with substrate ENLYFTS” value worked out at 0.0592 and the “area with substrate ENLYFWS” value came to 0.0493.

For MGESLFKGPRDYNPISSSICHLTNESDGHTTSLYGIGFGPFIITNKHLFRRNNGTLVVQSLHGVFKVKDTTTLQQHLVDGRDMIIIRMPKDFPPFPQKLKFREPQREERICLVTTNFQTKSMSSMVSDTSCTFPSGDGIFWKHWIQTKDGQCGSPLVSTRDGFIVGIHSASNFTNTNNYFTSVPKNFMELLMNQEAQQWVSGWRLNADSVLWGGHKVFMVKPEEPFQPVKEATQL [T192M], the “area with substrate ENLYFAS” value came to 0.0588, the “area with substrate ENLYFDS” value worked out at 0.0486, the “area with substrate ENLYFES” value is 0.0586 and the “area with substrate ENLYFFS” value came out at 0.0676. Also, the “area with substrate ENLYFGS” value was determined as 0.0496, the “area with substrate ENLYFHS” value worked out at 0.0603, the “area with substrate ENLYFIS” value is 0.0566 and the “area with substrate ENLYFKS” value stood at 0.0781. Also, the “area with substrate ENLYFLS” value turned out to be 0.0837, the “area with substrate ENLYFMS” value came out at 0.0818, the “area with substrate ENLYFNS” value is 0.0739 and the “area with substrate ENLYFPS” value worked out at 0.0541. In addition, the “area with substrate ENLYFRS” value was 0.0617, the “area with substrate ENLYFSS” value was determined as 0.0523, the “area with substrate ENLYFTS” value is 0.0501 and the “area with substrate ENLYFVS” value turned out to be 0.0398. Besides, the “area with substrate ENLYFWS” value is 0.0509 and the “area with substrate ENLYFYS” value came to 0.0437.
